The shares of active, inactive and inconclusive entries below differ from those in the screen. A potency beside an inconclusive call is a rough fit, not a confirmed value. Active and inactive are the calls of the source. No cut-off is given here; in the data, nearly all actives have IC50 up to about 30 µM.
experiment: SU-DIPG-XXV glioma cell viability, MIPE5.0 library, qHTS (AID 1347068);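 for IC50: cells exposed to compound for 48 hours before viability readout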

With `Cc1c(NC(=O)c2cc3c(s2)CCCC3)cccc1-c1cn(C)c(=O)c(Nc2ccc(C3C(=O)N(C)CCN3C)cc2)n1` (stereo not given) as the compound, how does the IC50 read?
The IC50 was inconclusive: 37.2 µM [cytotoxic].

For `COc1ccc(Cl)c(Nc2nc3ccccc3nc2NS(=O)(=O)c2cccc(NC(=O)C(C)(C)N)c2)c1`, which IC50 is on record?
The IC50 was inconclusive: 18.6 µM [cytotoxic].

For `CCC(CC)C(c1ccc(Nc2nc3ccccc3s2)cc1)n1cncn1` (stereo not given), which IC50 is on record?
The IC50 was active: 20.9 µM.

With `Cc1cc(C(=O)Nc2cc(Oc3ccc4nc(NC(=O)C5CC5)cn4n3)ccc2C)n(C)n1` as the compound, how does the IC50 read?
The IC50 was inconclusive: 11.8 µM [cytotoxic].

With `CN(C)CCCOc1ccc(-c2ccc3ncc4c(c3c2)n(C2CCOCC2)c(=O)n4C)cn1` as the compound, how does the IC50 read?
The IC50 was inconclusive: 8.11 µM [cytotoxic].

With `CCS(=O)(=O)Nc1ccc(Oc2ccc(F)cc2F)c(-c2cn(C)c(=O)c3[nH]ccc23)c1` as the compound, how does the IC50 read?
The IC50 was inconclusive: 8.33 µM [cytotoxic].

Which outcome does the source give for `CC(=NNC(=O)c1cccc(S(=O)(=O)N2CCOCC2)c1)c1cc(Cl)ccc1O` here?
The outcome was “inactive”.

For `C[C@@H]1C[C@H](N)C[C@H](c2ccncc2NC(=O)c2ccc(F)c(-c3c(F)cccc3F)n2)C1`, which IC50 is on record?
Its IC50 is inconclusive: 37.2 µM [cytotoxic].

Which IC50 does the source give for `CC(C)NC(=O)COc1cccc(-c2nc(Nc3ccc4[nH]ncc4c3)c3ccccc3n2)c1` here?
The IC50 was inconclusive: 10.5 µM [cytotoxic].

Which IC50 does the source give for `O=C(c1ccc(Nc2nc(C3CC3)cn3c(-c4cn[nH]c4)cnc23)c(F)c1)N1CCOCC1` here?
The IC50 was inconclusive: 37.2 µM [cytotoxic].

For `C=CC(=O)N[C@H]1CN(c2nc(Nc3cn(C)nc3OC)c3ncn(C)c3n2)C[C@@H]1F`, which IC50 is on record?
Its IC50 is active: 16.6 µM.

For `CCN(CC)C(=O)Cc1csc(NS(=O)(=O)c2cccc(Cl)c2C)n1`, which IC50 is on record?
Its IC50 is inconclusive: 0.00186 µM [cytotoxic].

Which IC50 does the source give for `C[C@H]1COCCN1c1cc(C2(S(=O)(=O)C3CC3)CC2)nc(-c2ccc(NC(=S)NCCO)cc2)n1` here?
Its IC50 is active: 4.68 µM.

With `COc1ccc2[nH]c(C(=O)N3CCC(CC(C)(C)O)CC3)cc2c1` as the compound, how does the IC50 read?
Its IC50 is inconclusive: 0.00148 µM.

For `CN1CCN(C2CCC(n3cc(-c4ccc(Oc5ccccc5)cc4)c4c(N)ncnc43)CC2)CC1` (stereo not given), which IC50 is on record?
Its IC50 is active: 8.33 µM.

Which IC50 does the source give for `Cc1cc(O[C@@H](CCC(F)(F)F)c2ccc(C(=O)NCCC(=O)O)cc2)cc(C)c1-c1ccc(C(C)(C)C)cc1` here?
Its IC50 is active: 8.33 µM.

For `COc1cc(C(=O)O)ccc1NC(=O)[C@@H]1N[C@@H](CC(C)(C)C)[C@](C#N)(c2ccc(Cl)cc2F)[C@H]1c1cccc(Cl)c1F`, which IC50 is on record?
The IC50 was inconclusive: 6.61 µM [cytotoxic].

With `COc1ncc(Nc2ncc([C@H](C)N3CCN(S(C)(=O)=O)CC3)cc2-c2nc(C)nc(N)n2)cc1F` as the compound, how does the IC50 read?
Its IC50 is inconclusive: 1.05 µM [cytotoxic].

With `NC(=O)c1cnc2[nH]ccc2c1NC1C2CC3C[C@H]1CC(O)(C3)C2` (stereo not given in full) as the compound, how does the IC50 read?
The IC50 was inconclusive: 4.68 µM [cytotoxic].

With `NCCCC[C@H](NC(=O)[C@@H](NC(=O)[C@H](Cc1c[nH]c2ccccc12)NC(=O)[C@H](CCCCN)NC(=O)[C@H](CCCCN)NC(=O)[C@H](Cc1c[nH]c2ccccc12)NC(=O)[C@H](Cc1c[nH]c2ccccc12)NC(=O)[C@H](CCCCN)NC(=O)[C@@H](N)CCCCN)C(c1ccccc1)c1ccccc1)C(N)=O` as the compound, how does the IC50 read?
The IC50 was inconclusive: 0.59 µM.

With `CN(C)CCNC(=O)NC[C@H]1CC[C@@H]2[C@H](O1)c1cc(C(F)(F)F)ccc1N[C@H]2c1ccccc1` as the compound, how does the IC50 read?
Its IC50 is inconclusive: 0.295 µM [cytotoxic].

Which IC50 does the source give for `Cc1ccc(C(=O)Nc2ccc(Oc3cc4cnn(C)c4cc3-c3cn[nH]c3)c(F)c2)c(=O)n1-c1ccc(F)cc1` here?
The IC50 was inconclusive: 5.25 µM [cytotoxic].

With `O=C(c1c(F)ccc(NS(=O)(=O)N2CC[C@@H](F)C2)c1F)c1c[nH]c2ncc(-c3cnc(C4CC4)nc3)cc12` as the compound, how does the IC50 read?
The IC50 was inconclusive: 6.61 µM [cytotoxic].

For `Cc1ccc(Nc2nnc(Cc3ccncc3)c3ccccc23)cc1Br`, which IC50 is on record?
The IC50 was inconclusive: 18.6 µM [cytotoxic].

For `Nc1nc(OC(c2ccc(-c3cccc(F)c3)cc2)C(F)(F)F)cc(-c2ccc(C[C@@H](N)C(=O)O)cc2)n1` (stereo not given in full), which IC50 is on record?
The IC50 was inconclusive: 7.42 µM [cytotoxic].

For `Cc1ccc(Nc2ncc3c(n2)N(C)C(=O)N(c2cc(NC(=O)c4cccc(C(F)(F)F)c4)ccc2C)C3)cn1`, which IC50 is on record?
The IC50 was active: 0.0742 µM.

Which outcome does the source give for `CC(C)[C@](O)(c1ccc2cc(OC(F)F)c(OC(F)F)cc2c1)c1cn[nH]n1` here?
Its outcome is “inactive”.

For `Cc1ccc(-c2nn(C(C)(C)CNC(=O)c3ccncc3)c3ncnc(N)c23)cc1`, which IC50 is on record?
The IC50 was active: 14.8 µM.

With `NC(=O)c1cccc2c(NC(CN3CCC3)c3ccc(Cl)c(C(F)(F)F)c3)ncnc12` (stereo not given) as the compound, how does the IC50 read?
Its IC50 is inconclusive: 0.00934 µM [cytotoxic].

For `O=c1c(-n2ccnn2)c[nH]n1-c1cc(N2CCOCC2)ncn1`, which IC50 is on record?
Its IC50 is inconclusive: 18.6 µM [cytotoxic].

For `c1cc(Nc2cc(C3CC3)[nH]n2)nc(Nc2ccc3nc[nH]c3c2)n1`, which IC50 is on record?
The IC50 was active: 1.48 µM.

For `N#Cc1ccc(Cn2cncc2CN2CCN(c3cccc(Cl)c3)C(=O)C2)cc1`, which IC50 is on record?
The IC50 was inconclusive: 13.2 µM [cytotoxic].

With `Nc1nccn2c(C3CCC(C(=O)O)CC3)nc(-c3cc4cccc(Cl)c4[nH]3)c12` (stereo not given) as the compound, how does the outcome read?
The outcome was “inactive”.

Which IC50 does the source give for `CNCc1ccc(-c2cc(-c3nc(-c4ccc(S(=O)(=O)C(C)C)cc4)cnc3N)on2)cc1` here?
The IC50 was inconclusive: 0.0295 µM.

For `O=C(NNc1ccccc1)c1ccncc1`, which outcome is on record?
Its outcome is “inactive”.

For `Cc1ccc(S(=O)(=O)Cc2nc(-c3ccc(C(=O)NCc4cccnc4)cc3)oc2C)cc1`, which IC50 is on record?
The IC50 was inconclusive: 0.0525 µM [cytotoxic].

For `C[C@H](NC(=O)c1c(N)nn2cccnc12)c1cc2cccc(C#Cc3cnn(C)c3)c2c(=O)n1-c1ccccc1`, which outcome is on record?
The outcome was “inactive”.

With `CN1CCN(C(=O)c2ccc3cc(CCNc4ncnc5ccc(C#N)cc45)ccc3c2)CC1` as the compound, how does the IC50 read?
Its IC50 is inconclusive: 13.2 µM [cytotoxic].

With `Cn1nccc1Nc1nccc(-c2cc3c(s2)C(C)(C)N(CCN2CCOCC2)C3=O)n1` as the compound, how does the outcome read?
The outcome was “inactive”.

With `CC(C)[C@@H](CS(=O)(=O)C(C)C)N1C(=O)[C@@](C)(CC(=O)O)C[C@H](c2cccc(Cl)c2)[C@H]1c1ccc(Cl)cc1` as the compound, how does the IC50 read?
Its IC50 is inconclusive: 37.2 µM [cytotoxic].

From PubChem BioAssay
